The labels stand for the following.
B1: CPEB3 Ribozyme (parent)
chain: UAACAGGGGGCCACAGCAGAAGCGUUCACGUCGCAGCCCCUGUCAGAUUCUGGUGAAUCUGCGAAUUCUGCUGUAUAUCUC

Self-cleavage data for 34 variants are collected here from the RNAGym collection of RNA variant scans (doi:10.1093/nar/gkz1192).

The source gives no read counts; variants with many changes may rest on few reads.

Variants of B1 are the subject of this data set. Put plainly: self-cleavage, relative activity (ratio to wild type); higher = more cleavage; in vitro, sequencing. A digest of the protocol:
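Libraries of CPEB3 self-cleaving ribozyme mutants came from rounds of error-prone PCR and carried barcodes, which DNA sequencing matched to variants. In vitro transcription used T7 RNA polymerase at 37°C for 5 hours, with a further 15 min in DNase I before EDTA stopped the reaction; the ribozymes cleaved during both steps. The RNA was reverse transcribed with template switching and sequenced on Illumina. Relative activity is the cleaved/total read fraction of a variant divided by that of the unmutated ribozyme, averaged over three batches with at least 5 reads.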
For the variant UAACAGGGGGCCACAGCAGAAGCGUUCACGUCGCAGCCCCUGUCAGAUUCUGGUGAACCUGCGCAUUCUGCUGUAUAUCCC, the self-cleavage stood at 0.17.
Turning to UAACAGGGGGCCACAGCAGAAGCGUUCACGUCGCAGCCCCUGUCAGAUUCUGGUGAAUCGGCGAACCCUGCUGUAUAUCUC, the self-cleavage worked out at 0.18.
The value for UAACAGGGGGCCACAGCAGAAGCGUUCACGUCGCAGCCCCUGUCAGAUUCUGGUGAAACUGCGAAUUCUGCCGUGUAUCUC was 0.34.
In the case of UAACAGGGGGCCACAGCAGAAGCGUUCACGUCGCAGCCCCUGUCAGAUUCUGGUGUAUCUGCGAAAUCUGCUGUAUAACUC, the self-cleavage was determined as 0.15.
As to UAACAGGGGGCCACAGCAGAAGCGUUCACGUCGCAGCCCCUGUCAGAUUCUGGUGAGUCUGCGAAUUCUGCUGUGUAUCUU, the self-cleavage worked out at 0.95.
Under UAACAGGGGGCCACAGCAGAAGCGUUCACGUCGCAGCCCCUGUCAGAUUCUGGUGAAUCCGCGGAUACUGCUGUAUACCUC stands 0.19; under UAACAGGGGGCCACAGCAGAAGCGUUCACGUCGCAGCCCCUGUCAGAUUCUGGUGUAUCUGCGAACCCUGCUGUAUAUCUC, 0.16.
The value for UAACAGGGGGCCACAGCAGAAGCGUUCACGUCGCAGCCCCUGUCAGAUUCUGGUGAGUCUGCGAACUCUGCUGUACAUCUC was 0.32.
As to UAACAGGGGGCCACAGCAGAAGCGUUCACGUCGCAGCCCCUGUCAGAUUCUGGUGAAUCCGCGAGUUCCGCUGUAUAUCUC, the self-cleavage is 0.24.
As for UAACAGGGGGCCACAGCAGAAGCGUUCACGUCGCAGCCCCUGUCAGAUUCUGGUGAAUCUGAGAAUUCAGCCGUAUAUCUC, the self-cleavage stood at 0.32.
For UAACAGGGGGCCACAGCAGAAGCGUUCACGUCGCAGCCCCUGUCAGAUUCUGGUGAGUCUGCGAAUUUUGCAGUAUAUCUC, the self-cleavage was 0.41.
Under UAACAGGGGGCCACAGCAGAAGCGUUCACGUCGCAGCCCCUGUCAGAUUCUGGUGAAUCCGCGAAUUCUGCCGUACAUCUC stands 0.52; under UAACAGGGGGCCACAGCAGAAGCGUUCACGUCGCAGCCCCUGUCAGAUUCUGGUGAAUCCACGAAUCCUGCUGUAUAUCCC, 0.28; under UAACAGGGGGCCACAGCAGAAGCGUUCACGUCGCAGCCCCUGUCAGAUUCUGGUGAACCUGCGAAUUCCGCUGUUUAUCUC, 0.27.
Regarding UAACAGGGGGCCACAGCAGAAGCGUUCACGUCGCAGCCCCUGUCAGAUUCUGGUGAGUCUGCCAAUUCUGCUGUAUACCUC, the self-cleavage came to 0.79.
UAACAGGGGGCCACAGCAGAAGCGUUCACGUCGCAGCCCCUGUCAGAUUCUGGUGAAUCUGGGAAUCAAGCUGUAUAUCUC: the self-cleavage amounted to 0.23.
The value for UAACAGGGGGCCACAGCAGAAGCGUUCACGUCGCAGCCCCUGUCAGAUUCUGGUGAAUUUGCGAAUUCAGCUGUACAUCCC was 0.58; that for UAACAGGGGGCCACAGCAGAAGCGUUCACGUCGCAGCCCCUGUCAGAUUCUGGUGAAUCUGCAGAUUCUGCCGUAUAUCCC was 0.63; that for UAACAGGGGGCCACAGCAGAAGCGUUCACGUCGCAGCCCCUGUCAGAUUCUGGUGAGUCUGCGAAUUCUGGUGUAUGUCUC was 0.29.
The value for UAACAGGGGGCCACAGCAGAAGCGUUCACGUCGCAGCCCCUGUCAGAUUCUGGUGAGUCUGCGAAUUGUGCUGUAUAUCCC was 0.23.
Under UAACAGGGGGCCACAGCAGAAGCGUUCACGUCGCAGCCCCUGUCAGAUUCUGGUGAGUCUGCGGAUUCUGCUGUAGAUCUC stands 0.48.
In the case of UAACAGGGGGCCACAGCAGAAGCGUUCACGUCGCAGCCCCUGUCAGAUUCUGGUGAAUCAGCGAAUUCUGCUGCAAAUCUC, the self-cleavage worked out at 1.13.
The value for UAACAGGGGGCCACAGCAGAAGCGUUCACGUCGCAGCCCCUGUCAGAUUCUGGUGAAUCCGCGUAUCCUGCUGUAUAUCUC was 0.3; that for UAACAGGGGGCCACAGCAGAAGCGUUCACGUCGCAGCCCCUGUCAGAUUCUGGUGAACCUGCGAAUUCUGCCGUAUACCUC was 0.43; that for UAACAGGGGGCCACAGCAGAAGCGUUCACGUCGCAGCCCCUGUCAGAUUCUGGUGAAUCAGCGGAUUCUGCAGUAUAUCAC was 0.43.
The value for UAACAGGGGGCCACAGCAGAAGCGUUCACGUCGCAGCCCCUGUCAGAUUCUGGUGAGUCCGCGAAUUCUGCUGUAUUUCUC was 0.43.
Under UAACAGGGGGCCACAGCAGAAGCGUUCACGUCGCAGCCCCUGUCAGAUUCUGGUGUAUCUGCGAAUUCAGCCGUAUAUCUC stands 0.33; under UAACAGGGGGCCACAGCAGAAGCGUUCACGUCGCAGCCCCUGUCAGAUUCUGGUGAAUCUGUGAAUUCCGCCGUAUAUCUC, 0.26.
Regarding UAACAGGGGGCCACAGCAGAAGCGUUCACGUCGCAGCCCCUGUCAGAUUCUGGUGAACCUGCGAAUUCUGCGGUAUUUCUC, the self-cleavage was determined as 0.6.
The value for UAACAGGGGGCCACAGCAGAAGCGUUCACGUCGCAGCCCCUGUCAGAUUCUGGUGUAUCAGCGAAUUCUGCUGUAUAACCC was 0.21.
Consider UAACAGGGGGCCACAGCAGAAGCGUUCACGUCGCAGCCCCUGUCAGAUUCUGGUGAGUCUGCGAAUUCUGCUGAGUAUCUC, for which the self-cleavage turned out to be 0.97.
Under UAACAGGGGGCCACAGCAGAAGCGUUCACGUCGCAGCCCCUGUCAGAUUCUGGUGAGUCUGCGUAUUCUGCUGUAUUUCUG stands 0.34; under UAACAGGGGGCCACAGCAGAAGCGUUCACGUCGCAGCCCCUGUCAGAUUCUGGUGAAUCUGAGAUUUCUACUGUAUAUCUC, 0.39.
Take UAACAGGGGGCCACAGCAGAAGCGUUCACGUCGCAGCCCCUGUCAGAUUCUGGUGAGUCUGCGAGUUCUGCUGUGUAUCUC: the self-cleavage turned out to be 0.15.
